Not every detail of the peptide structures is certain; ends, links or a residue may be inferred. Where a SMILES comes first, the peptide text is derived from it. [ ]: non-standard residue; d: D form. The star is where a group is joined. DOTA = O=C(O)CN1CCN(CC(=O)O)CCN(CC(=O)*)CCN(CC(=O)O)CC1; EuK = O=C(O)CC[C@H](NC(=O)N[C@@H](CCCCN*)C(=O)O)C(=O)O; 2Nal = N[C@@H](Cc1ccc2ccccc2c1)C(=O)O; Trx = NC[C@H]1CC[C@H](C(=O)O)CC1
Test system: PSMA+ LNCaP cells
Assay: Cell surface binding and internalization of 177Lu-labeled compounds
Assay type: cell-based
Conditions: 177Lu-labeled compound, 45 min, n = 3; for Internalization / Surface: 7.5 pmol precursor per 10^5 cells (30 nM), 37° C., without blocking; for Internalization Block / Surface Block: 7.5 pmol precursor per 10^5 cells, with blocking by 500 μM 2-PMPA

| SMILES | Internalization | Surface | Internalization Block | Surface Block |
| --- | --- | --- | --- | --- |
| O=C(O)CC[C@H](NC(=O)N[C@@H](CCCCNC(=O)[C@H](Cc1ccc2ccccc2c1)NC(=O)[C@H]1CC[C@H](CNC(=O)CCCCCNC(=O)CN2CCN(CC(=O)O)CCN(CC(=O)O)CCN(CC(=O)O)CC2)CC1)C(=O)O)C(=O)O [Ahx-1, DOTA-Ahx1-Chx-2-NaI-Lys-urea-Glu] | 0.07 ± 0.05 % AR/10^5 cells | 0.38 ± 0.14 % AR/10^5 cells | 0.01 ± 0.01 % AR/10^5 cells | 0.03 ± 0.03 % AR/10^5 cells |
| O=C(O)CC[C@H](NC(=O)N[C@@H](CCCCNC(=O)[C@H](Cc1ccc2ccccc2c1)NC(=O)[C@H]1CC[C@H](CNC(=O)CCCCCNC(=O)CCCCCNC(=O)CN2CCN(CC(=O)O)CCN(CC(=O)O)CCN(CC(=O)O)CC2)CC1)C(=O)O)C(=O)O [Ahx-2, DOTA-Ahx2-Chx-2-NaI-Lys-urea-Glu] | 0.11 ± 0.04 % AR/10^5 cells | 0.46 ± 0.11 % AR/10^5 cells | 0.01 ± 0.01 % AR/10^5 cells | 0.02 ± 0.01 % AR/10^5 cells |
| O=C(O)CC[C@H](NC(=O)N[C@@H](CCCCNC(=O)[C@H](Cc1ccc2ccccc2c1)NC(=O)[C@H]1CC[C@H](CNC(=O)CCCCCNC(=O)CCCCCNC(=O)CCCCCNC(=O)CN2CCN(CC(=O)O)CCN(CC(=O)O)CCN(CC(=O)O)CC2)CC1)C(=O)O)C(=O)O [Ahx-3, DOTA-Ahx3-Chx-2-NaI-Lys-urea-Glu] | 0.10 ± 0.04 % AR/10^5 cells | 0.30 ± 0.08 % AR/10^5 cells | 0.02 ± 0.01 % AR/10^5 cells | 0.03 ± 0.01 % AR/10^5 cells |
| O=C(O)CC[C@H](NC(=O)N[C@@H](CCCCNC(=O)[C@H](Cc1ccc2ccccc2c1)NC(=O)[C@H]1CC[C@H](CNC(=O)CCCCCNC(=O)CCCCCNC(=O)CCCCCNC(=O)CCCCCNC(=O)CN2CCN(CC(=O)O)CCN(CC(=O)O)CCN(CC(=O)O)CC2)CC1)C(=O)O)C(=O)O [Ahx-4, DOTA-Ahx4-Chx-2-NaI-Lys-urea-Glu] | 0.13 ± 0.05 % AR/10^5 cells | 0.28 ± 0.13 % AR/10^5 cells | 0.02 ± 0.01 % AR/10^5 cells | 0.03 ± 0.01 % AR/10^5 cells |
| C[C@H](NC(=O)CN1CCN(CC(=O)O)CCN(CC(=O)O)CCN(CC(=O)O)CC1)C(=O)N[C@@H](C)C(=O)N[C@@H](C)C(=O)NC[C@H]1CC[C@H](C(=O)N[C@@H](Cc2ccc3ccccc3c2)C(=O)NCCCC[C@H](NC(=O)N[C@@H](CCC(=O)O)C(=O)O)C(=O)O)CC1 [Ala-3, DOTA-Ala3-Chx-2-NaI-Lys-urea-Glu] ({DOTA}-AAA[Trx][2Nal]-EuK) | 0.07 ± 0.02 % AR/10^5 cells | 0.28 ± 0.02 % AR/10^5 cells | 0.01 ± 0.01 % AR/10^5 cells | 0.04 ± 0.02 % AR/10^5 cells |
| O=C(O)CC[C@H](NC(=O)N[C@@H](CCCCNC(=O)[C@H](Cc1ccc2ccccc2c1)NC(=O)[C@H]1CC[C@H](CNC(=O)CNC(=O)CNC(=O)CNC(=O)CN2CCN(CC(=O)O)CCN(CC(=O)O)CCN(CC(=O)O)CC2)CC1)C(=O)O)C(=O)O [Gly-3, DOTA-Gly3-Chx-2-NaI-Lys-urea-Glu] ({DOTA}-GGG[Trx][2Nal]-EuK) | 0.07 ± 0.01 % AR/10^5 cells | 0.28 ± 0.05 % AR/10^5 cells | 0.01 ± 0.00 % AR/10^5 cells | 0.05 ± 0.01 % AR/10^5 cells |
| O=C(O)CC[C@H](NC(=O)N[C@@H](CCCCNC(=O)[C@H](Cc1ccc2ccccc2c1)NC(=O)[C@H]1CC[C@H](CNC(=O)COCCOCCNC(=O)CN2CCN(CC(=O)O)CCN(CC(=O)O)CCN(CC(=O)O)CC2)CC1)C(=O)O)C(=O)O [PEG-2, DOTA-PEG2-Chx-2-NaI-Lys-urea-Glu] | 0.09 ± 0.05 % AR/10^5 cells | 0.39 ± 0.11 % AR/10^5 cells | 0.01 ± 0.00 % AR/10^5 cells | 0.03 ± 0.02 % AR/10^5 cells |
| O=C(O)CC[C@H](NC(=O)N[C@@H](CCCCNC(=O)[C@H](Cc1ccc2ccccc2c1)NC(=O)[C@H]1CC[C@H](CNC(=O)CCOCCOCCOCCOCCNC(=O)CN2CCN(CC(=O)O)CCN(CC(=O)O)CCN(CC(=O)O)CC2)CC1)C(=O)O)C(=O)O [PEG-4, DOTA-PEG4-Chx-2-NaI-Lys-urea-Glu] | 0.06 ± 0.03 % AR/10^5 cells | 0.39 ± 0.08 % AR/10^5 cells | 0.01 ± 0.01 % AR/10^5 cells | 0.02 ± 0.00 % AR/10^5 cells |
| O=C(O)CC[C@H](NC(=O)N[C@@H](CCCCNC(=O)[C@H](Cc1ccc2ccccc2c1)NC(=O)[C@H]1CC[C@H](CNC(=O)CCOCCOCCOCCOCCOCCOCCNC(=O)CN2CCN(CC(=O)O)CCN(CC(=O)O)CCN(CC(=O)O)CC2)CC1)C(=O)O)C(=O)O [PEG-6, DOTA-PEG6-Chx-2-NaI-Lys-urea-Glu] | 0.10 ± 0.06 % AR/10^5 cells | 0.30 ± 0.16 % AR/10^5 cells | 0.02 ± 0.01 % AR/10^5 cells | 0.03 ± 0.01 % AR/10^5 cells |
| O=C(O)CC[C@H](NC(=O)N[C@@H](CCCCNC(=O)[C@H](Cc1ccc2ccccc2c1)NC(=O)[C@H]1CC[C@H](CNC(=O)CCOCCOCCOCCOCCOCCOCCOCCOCCNC(=O)CN2CCN(CC(=O)O)CCN(CC(=O)O)CCN(CC(=O)O)CC2)CC1)C(=O)O)C(=O)O [PEG-8, DOTA-PEG8-Chx-2-NaI-Lys-urea-Glu] | 0.08 ± 0.03 % AR/10^5 cells | 0.30 ± 0.07 % AR/10^5 cells | 0.02 ± 0.01 % AR/10^5 cells | 0.06 ± 0.04 % AR/10^5 cells |
| O=C(O)CC[C@H](NC(=O)N[C@@H](CCCCNC(=O)[C@H](Cc1ccc2ccccc2c1)NC(=O)[C@H]1CC[C@H](CNC(=O)[C@H](Cc2ccccc2)NC(=O)[C@H](Cc2ccccc2)NC(=O)[C@H](Cc2ccccc2)NC(=O)CN2CCN(CC(=O)O)CCN(CC(=O)O)CCN(CC(=O)O)CC2)CC1)C(=O)O)C(=O)O [Phe-3, DOTA-Phe3-Chx-2-NaI-Lys-urea-Glu] ({DOTA}-FFF[Trx][2Nal]-EuK) | 0.38 ± 0.07 % AR/10^5 cells | 0.31 ± 0.03 % AR/10^5 cells | 0.24 ± 0.05 % AR/10^5 cells | 0.12 ± 0.04 % AR/10^5 cells |
| O=C(O)CC[C@H](NC(=O)N[C@@H](CCCCNC(=O)[C@H](Cc1ccc2ccccc2c1)NC(=O)[C@H]1CC[C@H](CNC(=O)[C@H](Cc2ccccc2)NC(=O)[C@H](Cc2ccccc2)NC(=O)[C@H](Cc2ccccc2)NC(=O)[C@H](Cc2ccccc2)NC(=O)[C@H](Cc2ccccc2)NC(=O)CN2CCN(CC(=O)O)CCN(CC(=O)O)CCN(CC(=O)O)CC2)CC1)C(=O)O)C(=O)O [Phe-5, DOTA-Phe5-Chx-2-NaI-Lys-urea-Glu] ({DOTA}-FFFFF[Trx][2Nal]-EuK) | 0.80 ± 0.06 % AR/10^5 cells | 0.32 ± 0.02 % AR/10^5 cells | 0.89 ± 0.15 % AR/10^5 cells | 0.18 ± 0.03 % AR/10^5 cells |
| O=C(O)CC[C@H](NC(=O)N[C@@H](CCCCNC(=O)[C@H](Cc1ccc2ccccc2c1)NC(=O)[C@H]1CC[C@H](CNC(=O)[C@H](Cc2ccc(O)cc2)NC(=O)[C@H](Cc2ccc(O)cc2)NC(=O)[C@H](Cc2ccc(O)cc2)NC(=O)CN2CCN(CC(=O)O)CCN(CC(=O)O)CCN(CC(=O)O)CC2)CC1)C(=O)O)C(=O)O [Tyr-3, DOTA-Tyr3-Chx-2-NaI-Lys-urea-Glu] ({DOTA}-YYY[Trx][2Nal]-EuK) | 0.38 ± 0.18 % AR/10^5 cells | 0.31 ± 0.03 % AR/10^5 cells | 0.07 ± 0.07 % AR/10^5 cells | 0.04 ± 0.01 % AR/10^5 cells |
| O=C(O)CC[C@H](NC(=O)N[C@@H](CCCCNC(=O)[C@H](Cc1ccc2ccccc2c1)NC(=O)[C@H]1CC[C@H](CNC(=O)[C@H](Cc2ccc(O)cc2)NC(=O)[C@H](Cc2ccc(O)cc2)NC(=O)[C@H](Cc2ccc(O)cc2)NC(=O)[C@H](Cc2ccc(O)cc2)NC(=O)[C@H](Cc2ccc(O)cc2)NC(=O)CN2CCN(CC(=O)O)CCN(CC(=O)O)CCN(CC(=O)O)CC2)CC1)C(=O)O)C(=O)O [Tyr-5, DOTA-Tyr5-Chx-2-NaI-Lys-urea-Glu] ({DOTA}-YYYYY[Trx][2Nal]-EuK) | 0.27 ± 0.15 % AR/10^5 cells | 0.43 ± 0.01 % AR/10^5 cells | 0.14 ± 0.10 % AR/10^5 cells | 0.12 ± 0.02 % AR/10^5 cells |
